Where “and” joins values, the source holds several entries; their conditions need not be identical. Identical values can stand only once.
Legend:
[1] = LO14 TOP1i ADC PK Parameters
Source text: Table printed on a drawing sheet, FIG. 7C
Title: LO14 TOP1i ADC PK Parameters
A standard 2 comportment naïve pool model was used to calculate clearance, half-life, and volume of distribution and over a 21 day duration. There is minimal difference in clearance of LO14 antibody or ADC in immunocompromised NSG mice (left). The clearance of LO14 SG3932 DAR8 ADC is similar in both immunodeficient (NSG, Athymic Nude) and immunocompetent (FcRN) mice (right).
A standard 2 comportment naïve pool model was used to calculate clearance, half-life, and volume of distribution and over a 21 day duration. There is minimal difference in clearance of LO14 DAR4 or DAR8 ADCs in immunocompromised NSG mice (left).
First reader's note: The sheet heading over the plot reads 'PK Profile of LO14 LP-1 DAR8 ADC in NSG Mice SD, IV, 5 mpk', giving the dosing conditions for these parameters.

[2] = Heat stress developability; format: physicochemical; conditions: hIgG1-TM
[3] = Photo stress developability; format: physicochemical; conditions: hIgG1-TM
C42 cells [4] = test: Internalization assay (Fab-Fluor, Incucyte live cell imaging); format: cell-based, human; conditions: calculated between 2.5-6 hours
Source text: The internalization assays were designed to determine the rate at which parental 40A3-LO7 and its affinity matured derivatives could enter the cell after target engagement. The assay relies on labeling the Fc-containing test antibodies with a Fab fragment-conjugated pH-sensitive fluorophore (Sartorius/Essen BioScience) and the inherent ability of STEAP2 receptor to internalize when bound to antibody. The internalization of the anti-STEAP2 antibodies was detected with standard methods of live cell imaging using the Incucyte SX5.
Briefly, 24 hrs prior to starting the assay, the cells lines being evaluated were harvested using cold 0.25% Trypsin-EDTA, resuspended in maintenance media, pelleted, and counted. Cell density was adjusted to 0.15 e6 cells/ml in RPMI1640 media without phenol red. One hundred microliters of cells were added to each well and incubated overnight at 37 C, 5% CO2. […] The data was normalized analyzed by dividing the “Total Integrated Intensity (TII=RCU×μm^2/Image)” by the “% Confluence,” then multiplying by an appropriate scaling factor. The normalized data plotted as a function of time, and the slope was calculated to determine the internalization rate (A intensity/min). The earliest timepoint at which fluorescent signal was detected above background was at 2 hours (FIG. 4A-4B, top), so the internalization kinetics were calculated between 2.5-6 hours.

[5] = Pharmacokinetics in NSG mice; format: in vivo; conditions: single 5 mpk IV
Protocol: A study was designed to characterize the pharmacokinetics (PK) properties of LO14 unconjugated antibody, DAR4, and DAR8 TOP1i ADCs in mice. Four to six week old male immunodeficient (athymic nude, NOD Scid Gamma) or humanized mice (FcRn) were administered a single dose 5 milligrams per kilogram (mpk) intravenous injection of test reagent. Animals were monitored and 100-200 microliters of blood was collected at each timepoint (n=9 timepoints between 0 to 21 days post injection). The mice for each test group (n=9) were distributed among three cohorts to enable 6 survival bleeds and 3 terminal bleeds over the course of the study. Standard ELISA and Mass Spectrometry methods were used to quantify plasma concentration (ug/mL) of each test article over time. A standard 2 compartment model was fit to the pooled data from all the mice on study. All the individual datapoints are utilized but assuming that there is no inter-animal variability in any of the parameters (naive pooled approach). The 2 compartment model was used to calculate drug clearance (C1), the apparent volume of distribution at steady state (Vss), and half-life (T1/2).

LNCaP cells = test: Cytotoxicity assay (CellTiter-Glo 2.0) in LNCaP; format: cell-based, human
Protocol: (§1) The cytotoxicity assays were designed to determine whether LO11 and LO14 TOP1i ADCs could reduce the cell viability of STEAP2 expressing prostate cancer cell lines. The assay relies on the principle that dying cells will produce less adenosine triphosphate (ATP). […] The bioluminescent signal was detected using standard plate-reading methods (SpectraMax M5). Briefly, 24 hours prior to starting the assay, human prostate cancer cells were harvested and counted described above. […] Fifty microliters of each dilution was added to the designated wells and cells were incubated for 5. After removing the treatment media, 50 microliters of RPMI1640 media without Phenol Red and 50 microliters of CTG2.0 (Promega) was added to each well. Plates were incubated for 20 minutes and then transferred to the SpectraMax M5 for luminescence detection.

C42 cells [6] = test: Cytotoxicity assay (CellTiter-Glo 2.0) in C42; format: cell-based, human
Protocol: as §1

22Rv1 cells = test: Cytotoxicity assay (CellTiter-Glo 2.0) in 22Rv1; format: cell-based, human
Protocol: as §1

C42 model = test: In vivo efficacy, C42 cell-derived xenograft; set-up: species or system NSG mice; conditions: C42 model, single IV dose
Protocol: (§2) Cell lines or tumor tissue fragments were implanted subcutaneously into male NSG mice between 6 to 8 weeks of age. When tumors reached the appropriate tumor volume range (150-300 mm^3), animals were randomized into treatment and control groups (n=5 animals/group) and dosing was initiated. A single dose of test article was administered to the tumor-bearing mice via intravenous injection. Animals were observed daily, and tumor dimensions and body weight were measured and recorded twice weekly. Tumor volumes were measured by digital caliper and the volumes of tumors were calculated using the following formula: tumor volume=[length (mm)×width (mm)^2×0.52, where the length and width are the longest and shortest diameters of the tumor, respectively.
(§3) Monotonic (always decreasing) generalized additive model (GAM) spline curves were fit to the dose response data to illustrate the statistical difference between the effects of LO14 TOP1i DAR4 and DAR8 ADCs across the tested CDX and PDX models (FIG. 8E).
(§4) • DAR4.Ix50/DAR8.Ix50 refers to the best fit value of the lambda, wherein best is based on the r-squared value. • Diff is the difference in relative growth rate between DAR4 and DAR8. • SE=standard error

22Rv1 model = test: In vivo efficacy, 22Rv1 cell-derived xenograft; set-up: species or system NSG mice; conditions: 22Rv1 model, single IV dose
Protocol: as §2, §3, §4

B1: LO14 TOP1i ADC (conjugate)
heavy: QVQLQQSGPGLVKPSQTLSLTCAISGDSVSRNSAVWNWIRQSPSRGLEWLGRTYYRSKWYNDYAPSVKSRITINPDTSKNQFSLQLNSVTPEDTAVYYCARGLRQNQFYYYMDVWGKGTTVTVSSASTKGPSVFPLAPSSKSTSGGTAALGCLVKDYFPEPVTVSWNSGALTSGVHTFPAVLQSSGLYSLSSVVTVPSSSLGTQTYICNVNHKPSNTKVDKRVEPKSCDKTHTCPPCPAPEFEGGPSVFLFPPKPKDTLMISRTPEVTCVVVDVSHEDPEVKFNWYVDGVEVHNAKTKPREEQYNSTYRVVSVLTVLHQDWLNGKEYKCKVSNKALPASIEKTISKAKGQPREPQVYTLPPSREEMTKNQVSLTCLVKGFYPSDIAVEWESNGQPENNYKTTPPVLDSDGSFFLYSKLTVDKSRWQQGNVFSCSVMHEALHNHYTQKSLSLSPGK
light: EIVMTQSPATLSVSPGERATLSCRASQSVASNLAWYQQKPGQAPRLLIYGASTRATGIPARFSGSGSGTEFTLTISSLQSEDFAVYYCQQYNNWPFTFGPGTKVDIKRTVAAPSVFIFPPSDEQLKSGTASVVCLLNNFYPREAKVQWKVDNALQSGNSQESVTEQDSKDSTYSLSSTLTLSKADYEKHKVYACEVTHQGLSSPVTKSFNRGEC
What does the source list for B1?
CLp [1]: 7.7 mL/day/kg; t1/2 [1]: 9.7 days

B2: 40A3-LO11 (antibody)
heavy: QVQLQQSGPGLVKPSQTLSLTCAISGDSVSRNSAVWNWIRQSPSRGLEWLGRTYYRSKWYNDYAPSVKSRITINPDTSKNQFSLQLNSVTPEDTAVYYCARGLLQNQFYYYMDVWGKGTTVTVSSASTKGPSVFPLAPSSKSTSGGTAALGCLVKDYFPEPVTVSWNSGALTSGVHTFPAVLQSSGLYSLSSVVTVPSSSLGTQTYICNVNHKPSNTKVDKRVEPKSCDKTHTCPPCPAPEFEGGPSVFLFPPKPKDTLMISRTPEVTCVVVDVSHEDPEVKFNWYVDGVEVHNAKTKPREEQYNSTYRVVSVLTVLHQDWLNGKEYKCKVSNKALPASIEKTISKAKGQPREPQVYTLPPSREEMTKNQVSLTCLVKGFYPSDIAVEWESNGQPENNYKTTPPVLDSDGSFFLYSKLTVDKSRWQQGNVFSCSVMHEALHNHYTQKSLSLSPGK
light: EIVMTQSPATLSVSPGERATLSCRASQSVASNLAWYQQKPGQAPRLLIYGASTRATGIPARFSGSGSGTEFTLTISSLQSEDFAVYYCQQYNNWPFTFGPGTKVDIKRTVAAPSVFIFPPSDEQLKSGTASVVCLLNNFYPREAKVQWKVDNALQSGNSQESVTEQDSKDSTYSLSSTLTLSKADYEKHKVYACEVTHQGLSSPVTKSFNRGEC
Which results are given for B2?
Heat Stress (% aggregate increase) [2]: 0.24%; Photo stress (% aggregate increase) [3]: 0.8%; internalization rate (C42 cells [4]): 66 TII/min

B3: 40A3-LO14 (antibody)
heavy: QVQLQQSGPGLVKPSQTLSLTCAISGDSVSRNSAVWNWIRQSPSRGLEWLGRTYYRSKWYNDYAPSVKSRITINPDTSKNQFSLQLNSVTPEDTAVYYCARGLRQNQFYYYMDVWGKGTTVTVSSASTKGPSVFPLAPSSKSTSGGTAALGCLVKDYFPEPVTVSWNSGALTSGVHTFPAVLQSSGLYSLSSVVTVPSSSLGTQTYICNVNHKPSNTKVDKRVEPKSCDKTHTCPPCPAPEFEGGPSVFLFPPKPKDTLMISRTPEVTCVVVDVSHEDPEVKFNWYVDGVEVHNAKTKPREEQYNSTYRVVSVLTVLHQDWLNGKEYKCKVSNKALPASIEKTISKAKGQPREPQVYTLPPSREEMTKNQVSLTCLVKGFYPSDIAVEWESNGQPENNYKTTPPVLDSDGSFFLYSKLTVDKSRWQQGNVFSCSVMHEALHNHYTQKSLSLSPGK
light: EIVMTQSPATLSVSPGERATLSCRASQSVASNLAWYQQKPGQAPRLLIYGASTRATGIPARFSGSGSGTEFTLTISSLQSEDFAVYYCQQYNNWPFTFGPGTKVDIKRTVAAPSVFIFPPSDEQLKSGTASVVCLLNNFYPREAKVQWKVDNALQSGNSQESVTEQDSKDSTYSLSSTLTLSKADYEKHKVYACEVTHQGLSSPVTKSFNRGEC
Which results are given for B3?
Heat Stress (% aggregate increase) [2]: 0.27%; Photo stress (% aggregate increase) [3]: 1.75%; internalization rate (C42 cells [4]): 85 TII/min; T1/2 [5]: 15 days; Vss [5]: 0.11 L/kg; Cl (clearance) ([5]; 2 compartment model): 5.2 mL/day/kg

B4: LO14 LP-1 DAR8 ADC (conjugate)
heavy: QVQLQQSGPGLVKPSQTLSLTCAISGDSVSRNSAVWNWIRQSPSRGLEWLGRTYYRSKWYNDYAPSVKSRITINPDTSKNQFSLQLNSVTPEDTAVYYCARGLRQNQFYYYMDVWGKGTTVTVSSASTKGPSVFPLAPSSKSTSGGTAALGCLVKDYFPEPVTVSWNSGALTSGVHTFPAVLQSSGLYSLSSVVTVPSSSLGTQTYICNVNHKPSNTKVDKRVEPKSCDKTHTCPPCPAPEFEGGPSVFLFPPKPKDTLMISRTPEVTCVVVDVSHEDPEVKFNWYVDGVEVHNAKTKPREEQYNSTYRVVSVLTVLHQDWLNGKEYKCKVSNKALPASIEKTISKAKGQPREPQVYTLPPSREEMTKNQVSLTCLVKGFYPSDIAVEWESNGQPENNYKTTPPVLDSDGSFFLYSKLTVDKSRWQQGNVFSCSVMHEALHNHYTQKSLSLSPGK
light: EIVMTQSPATLSVSPGERATLSCRASQSVASNLAWYQQKPGQAPRLLIYGASTRATGIPARFSGSGSGTEFTLTISSLQSEDFAVYYCQQYNNWPFTFGPGTKVDIKRTVAAPSVFIFPPSDEQLKSGTASVVCLLNNFYPREAKVQWKVDNALQSGNSQESVTEQDSKDSTYSLSSTLTLSKADYEKHKVYACEVTHQGLSSPVTKSFNRGEC
What does the source list for B4?
cytotoxic effect on cell viability, in words (LNCaP) (LNCaP cells): dose-dependent decrease in cell viability; cytotoxic effect on cell viability, in words (C42) (C42 cells [6]): dose-dependent decrease in cell viability; cytotoxic effect on cell viability, in words (22Rv1) (22Rv1 cells): dose-dependent decrease in cell viability; dose as low as which significant tumor regression was observed (C42 model): 0.25 mpk and 0.5 mpk; dose at which significant tumor regression was achieved (22Rv1 model): 3-6 mpk

— patent publication US20250041435A1, “STEAP2 ANTIBODY DRUG CONJUGATES AND USES THEREOF” (MedImmune, LLC, priority 2023, published 2025)
